Test results as given in the supplement of paper PMC10126150.
Values marked as one replicate rest on one cluster of the flow cell; about a third of the high ones do not repeat.

System: ATP
Experiment: switch fluorescence ratio, 500 uM ATP over buffer (Cy3 cluster intensity, sum of 5 cycles each) (fold (ratio)); higher = stronger signal-on switching upon ATP binding; sequences stand for … in TCGTCGGCAGCGTCAGATGTGTATAAGAGACAGTTTTTTTTTTTTTTTTTTTTTTTTT…TC
Conditions: aptamer strand: ATP DNA aptamer (quencher-CACCTGGGGGAGTATTGCGGAGGAAGG + anchor), 100 nM annealed; ATP concentration: 500 uM; one replicate
Outline: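 Cy3-labelled switching-strand clusters on a modified Illumina MiSeq flow-cell were annealed to 100 nM quencher-labelled ATP aptamer, imaged in selection buffer, then imaged after 15 min with 500 uM ATP at 22 °C. Five buffer/ATP cycles ran, with NaOH stripping and re-annealing between them. The fluorescence ratio is summed target-cycle over summed buffer-cycle Cy3 intensity per cluster, averaged per switch-domain sequence. Clusters outside 100-1000 RFU were excluded.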
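Note: ATP exposure 15 min at 22 °C before imaging.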

Sequence	switch fluorescence ratio
AAGGCGCCAT	0.953
TATTGGGAAC	0.991
CTAGTTATAT	0.985
TTAATCTTGA	1.14
TAAAGTGAC	1.13
GTGGGAAACA	1.02
GTCGAGAAAG	0.946
CGTACTAACT	1.1
TTGGGGCATT	1.06
GTTGGGAGTG	0.978
TAACAGTTTT	1
TAGTACCCTA	1.01
GATGAGAGCA	1
AGCTTTTCCC	1.08
TACTCCCATG	1.59
TGTGTGTGA	1.04
TGCGTCTTAA	1.04
TATGACTGCC	1.22
TTAAGCACTG	1.13
AAGGTCAACT	0.957
TTCTGATAAT	1.04
CCGGACTCCG	2.92
TTCTGGGCCA	0.962

Sequence	switch fluorescence ratio
CGCACATTAA	1.34
ATAGGTATG	0.985
ACCTAAAAAA	0.978
AGCACGCCTG	0.987
CCTGGCCACT	1.05
CTTTGGCCTT	1.01
GAGAATCCTC	1.02
GTTTATCAGT	0.977
GGGTAAGAAT	1.02
CGTGGTACCC	1.02
AAAACGTCGG	1.03
AAAAACATT	1.04
GGCCTGCAGT	1.01
GAAGGATCGC	0.997
CATCGGTACC	1.02
TCGAGCCCTG	1.08
GGAGTTTATT	1.02
ACTTAGGCAA	1.28
CGTAGTGTGC	1.74
ATAGCCAAAT	0.955
ACGACGTCTT	1.09
CATGGCAGGT	1.02
TATGTTTAGG	0.988

Sequence	switch fluorescence ratio
TTCGTGGGTA	1.05
TGTTAGCAGC	1.08
ACAGGTTTCG	1.02
AGCCTGGGGT	1.02
ACTTGGGAGG	1.02
CAGTGATTAG	0.973
TCGGTTTCTT	0.994
AATACGGCAG	0.98
GGTGTATTGC	1.06
TCAGTGCTGG	1.01
TCCCGGAGTT	1.12
ATGGCGTATG	0.991
AGAAGCCAGG	1.13
GGAAATGTCT	0.972
TTTCTCACAC	1.31
GGTGACCGCG	1.04
ACGCACGCTC	1.66
AATCTTGCTA	1.02
CGGGGAACGT	0.969
AGACGAGAGC	1.01
GCAGTTGTAC	1.46
GGAGAATGAA	1.02
GAATGTCCGG	0.987

Sequence	switch fluorescence ratio
TTGCACGG	1
ACCTAAGGG	1.01
TCCATGGGGA	1.03
AGCGGATTG	0.973
GCTACACCCG	1.15
TGAGATCCGT	1.02
TTTAATGAGG	1.05
AGCATCCTCA	1.06
TGGGAGGGG	0.975
TGACTAGATC	1.02
GTGCCCACTT	0.993
TCAATCAGGG	1.03
TGGTCCTAAT	1
AGAGCTTTTA	1.02
GCGTAGGTCA	1
CGATTGCCTA	1.03
GGGAATATAC	1.12
AGCGCCCGCG	1
TAGGGACTTG	1.04
GGGACACGAT	1.05
CAGAGAAATA	1.03
CTACATGGGG	1
AAAGCAAGGG	1.3

Sequence	switch fluorescence ratio
TTTGTATGAC	1.42
TCTTTTTCGG	1.03
TCACTTTTTT	0.973
AGACTTAGGA	1.03
AGTCTTAGAG	0.967
TCTTGGTGGA	0.988
TGGTTATCA	0.993
TTAGGAGGTA	0.966
CTTCGAGTAA	1.09
ACGGAAAGCC	1.05
GAGGAGTAAC	0.981
ATCACTTAGG	1.06
TCCTTTTTAC	1.19
GGAGCCAGAT	0.994
AATCCCGTGG	0.997
GAGATGAGAA	0.969
AACTTGTGT	1.05
GGGTGAATTT	0.985
GTCGGACGTG	1.05
ACGGGACACG	1.06
ACATGCCGT	1.15
CGAGGAAGAA	1.04
TGCACGAAGG	0.968

Sequence	switch fluorescence ratio
TTCACAAGAA	1.01
AGATAGAAAG	1
AAGTCCTAGA	1
ACTTATTTGG	0.993
TAGATGGACC	1.02
CTATCATTTT	1.02
TACTTGCAT	1.11
CAGGCAAGCC	1.05
TTTAAACAGC	0.987
AAGTGTCGGA	0.993
GAGGTGCGG	0.975
TCACCGGATT	1.38
ATCTACCGT	1.01
CCTTCCGAC	3.05
ACACGCTATT	1.31
TATAAAGCTT	1.06
TTGAGGAGTT	0.992
CACGTGTTCG	1.05
GGCATACCTC	1.13
ACAGCATGAC	4.21
TGTAGTCGCC	0.978
CAACAGACGG	1.22
AGCGAAACCT	1.57

Sequence	switch fluorescence ratio
GTATAATGAG	0.967
CGCATTGGG	1.07
TGTCATCC	1.04
GACAAGGGTA	0.937
CTGCCATAAC	2.54
ATAAAGGCCT	1.03
GGGATGCTGT	0.944
GGTCTACCCT	1.02
GAAATAGAAT	0.94
CGGTTTAACG	0.989
TATCAACTTT	0.997
AACAAACAGC	1.01
CTTACGTAAA	1.25
CGAAAAAATA	1.03
GTGTTCTAAT	0.953
CACTTTCAGT	0.988
CTTACTACTC	1.11
TGACCGTGT	0.97
CAGCGGTTCG	1.01
